# Assay results taken from the RNAGym collection of RNA variant scans (doi:10.7554/elife.90254).
# Read counts are not given, so values of variants with three or more changes are uncertain.
# B1: OR4K15 (parent)
# chain: GUUAACGGUCAUAGGCCAUGGAAACUAGGAGCACCAUUUCGCUGCCAGUGAAGAAAUGAACAAAGAAAAUCUGGGCCAGGCAGGCAUCAAAAGAAAUAGUCUUGCGCUCAACCAGAAAGUCUGUAAUCAUUUUAAGGGUA
# Variants of: B1
# Assay: self-cleavage, relative activity (ratio to wild type); higher = more cleavage; in vitro, sequencing; the parent is a self-cleaving ribozyme
row,Variant,self-cleavage
1,A47G A59G A78U A96U,0.15
2,U43C U57C A64G A89G,1.22
3,A47U A62U U87C A92G,0.98
4,U43C U57C A114U,0.02
5,G41U A55G U87A,1.27
6,U43C A56G G73U,0.13
7,U43A A86U A92C U103A,1.66
8,U43C A117G A118G,1.14
9,A47G U57C A62G A98G,0.22
10,U43C A90G A114U,0.04
11,U43A A118G A126G,1.5
12,A47G A78U U130A,0.12
13,U43G G50A U131C,1.58
14,U43C A59G A78G U108C,0.01
15,A47G A60G A110G U132C,0.15
16,U43C A66G U102A,0.98
17,C42U A86G A89G C109U,0.56
18,U43C A59G C109U A118G U130C U131C,0.17
19,U43A A59G A62G A64G,2.84
20,U43C A54G A67G C105U A116G,0.03
21,U43A A59U U124C,0.16
22,U43C A67G C121U,2.09
23,A47G G106U U131C,0
24,A47U A60C C81A,0.26

row,Variant,self-cleavage
1,U43C A66U U70C U87C A95U G123U,0.16
2,U43C A91G U103C,0.49
3,G41U G74U U122A,0.27
4,C45U A111G U132A,0.04
5,A47G A52U A117G,2.49
6,A47G A68G A110G,0.05
7,U43A A51G A116G,0.26
8,U43C A51G A66G A111G,0.02
9,U43A A55G A66G A110G U132C,0.18
10,G41U A86G A96G,2.45
11,A47G C77U U108C,0.03
12,U43C A60G G80U A110G,0.02
13,U43C A78G A92G,0.29
14,U43C A51U A67U,1.75
15,U43C A114U U132C,0.03
16,C45U A51G U108C A118G,0
17,U43C A94G A114U A116U,0.03
18,U43C A54G A78U,0.15
19,A47G A59U U124C,0.69
20,G41U A60U A92G U100C A126G,2.16
21,C46A G74C A89G A126U,0.14
22,G41A A78U A116G,0.08
23,U43C A78G U130C,0.05
24,A47G A67G U102C,2.34

row,Variant,self-cleavage
1,A47G A86U A94C,1.42
2,A47G A111G A129G,0.01
3,U43C A90G U108C,0.01
4,C42A A68G A89G U131C,0.32
5,U43C U57C A82G U127C,0.13
6,U43A A54G A55G A64G,1.3
7,U43C A51G U120C,0.77
8,U43A A51G A95G U102A U108A,0.02
9,A47G A67G U72G G115A A116U,0.01
10,U43C U103C G138A,1.03
11,A47G A68G A89G A111G,0.02
12,C46U C77U A91G A96U,1.49
13,C46U U57C A59U,1.14
14,U43C A69G A126U,1.2
15,U43C A68G A129G,1.28
16,U43C A51G A62G,1.44
17,U43A A78G U103A,0.11
18,A47U A52U A78G,0.09
19,A47G A94G U97A A111G,0.02
20,U43C A51G A60C U102C,2.17
21,U43C C45U A52U A89G U108C A116G U139C,0
22,G41A C61U A68G A117G U122C,2.53
23,A47G U49C A78C U108C,0.01
24,A47U A67G A68G A91G A116G,0.4

row,Variant,self-cleavage
1,U43C A94G C105U,0.37
2,A47G A62G A63G,1.78
3,A47C U97C U108C,0.01
4,U43A A52G A110U A116U,0.12
5,A47G A60G A64G A92G A95G U102C U122C U132G,1.7
6,A47U A59G A69U G84C,0.2
7,A47C G79A U87C,0.11
8,U43C A52U U108C,0.02
9,U43A A52C G75A,0.21
10,U43A A86G A96G C112U,0.02
11,U43C U49C A64G,1.71
12,A47U A60G U122C,0.49
13,C42U A56G A78U U131C,0.47
14,U43A A69G U120C,0.5
15,C42U A64G U108C,0.02
16,U43C C46U A60G A91G U124C,0.41
17,C46U U102C G104A,0.03
18,U43C A64G G137U,1.47
19,G44A A55U A64C U133A,1.51
20,U43C G50U A55G A78G,0.27
21,A47U A52G A78U G84A A90G,0.91
22,U43A A60G A96G,2.41
23,G41U A67U U97A,1.28
24,U43C A68G A117G,2.2

row,Variant,self-cleavage
1,C45U G50U U108C,0.02
2,U43C A60G A91G U108C A111G U133C,0
3,U43C U49C A91G,0.82
4,U43C U49A A69U U122A,1.27
5,U43C U72C A110G,0.08
6,U43C A55U A94G U127C,0.6
7,C42U C107A A110G,0.02
8,A47G G58A A86G U102C,1.27
9,U43A U57C A140U,1.19
10,U43A A63G G73A A96G A118G,0.06
11,A47U A62G A69C A96G,0.46
12,U43C A56G U87C U108C G136U,0.01
13,A47G A94G A116G,0.97
14,C46U U57C U100C U122C,2.13
15,A47G A82U A92G,0.22
16,U43A A62G C81U A117G,0.36
17,A47G A56G A126U,0.67
18,U43C A92U A126U,1.38
19,A47G A82G A91U A94G U131C,0.61
20,C46U A62G A94G A129G,1.57
21,G41A A89G A110U U131C A135G,0.95
22,C45A A59G U120A,0.55
23,C46U A56G A94U A95G C105U A129C,0.18
24,U43A A60G A69G,1.16

row,Variant,self-cleavage
1,U43C A116U U131C,0.33
2,A47C A51G A117G U127C U132C,0.46
3,A47G A56G U103A U122C,0.12
4,C42U U49C U57C G115A U139C,0.01
5,U43C A52G A56G A95G,1.98
6,U43C A67G C128U A140G,1.04
7,U43C A60G U97C,1.43
8,U43C A55G A117G,1.13
9,U43C A60G A69G,2.01
10,U43G A52G A86G,0.69
11,C42A A51U A55G A90G A92G,0.53
12,U43C A86G A98U A134G,2.12
13,A47G A67G A82G U120C,0.27
14,A47G A59G A63U A68G,1.11
15,A47G A55G A69G,0.61
16,U43A A62G A125C,0.9
17,C46U G79U U100A,0.03
18,U43C G50U A51G A69U A86G,0.42
19,U43C U70C C112U U127C,0.01
20,A47G A66G G99A,0.48
21,A47G A135G U139C,1.08
22,G44A U57C U100C A116G,1.33
23,U43A A47G A51G A114U U120C,0.05
24,U43C A59G A62G A67G A89G C101U A126G,0

row,Variant,self-cleavage
1,A47G U108C A129G U131C,0.01
2,U43C A62G U102C U133C,2.06
3,U43C A64G C107U,0.01
4,G41U A54G U57C G123U,2.56
5,C46A A89G U131C,1.53
6,A47U A60G U87C,0.53
7,A47G A55U A78U A111G,0.03
8,U43C U57C A116G,0.13
9,A47U A52G A82U A98G U108C,0.01
10,A47G A96G A118G,0.71
11,U43C A63G A82U,0.17
12,U43C C105U A116G,0.08
13,A47G A68G U130C A134G,1.08
14,C46A U72A A78U,0.07
15,U43C C76G U87C,0.11
16,C42A G53A A86G,1.3
17,A47G U87C A91G,0.35
18,C46U U87C A135G,1.17
19,U43C A52G A64G A90G A92G U108C A117G,0.02
20,A47G A55G U108C,0
21,A47G A52G A82G,0.66
22,U43C A63G A67G U72C,0.25
23,U43C A51G A92U,1.46
